Five molecules from paper PMC4383008 can be followed below.

Changes are numbered by the printed parent chain. Results are given in words; binding and its absence hold for the method and conditions named. In cells and extracts the contact can be indirect. Some binding calls cover weakened binding; strength is not graded here. For some assays here: Sequences can lack the tags named with a protein.

Test [1] addresses GluA2 AMPAR subunit, endogenous in mouse brain lysate (mouse (endogenous in mouse brain)), P23819. The test is described as follows: co-IP; wild-type mouse brain lysate (HBST buffer), in presence of 3 mM GTPγS; precipitated with anti-GluA2, 24 h at 4 °C. Particulars: remark: other sources report otherwise.
In a further test the target is myc-PICK1 (UniProt Q9EP80). Put plainly: co-IP; lysate (CHAPS buffer) of HEK293T cells co-expressing flag-RAB39B and myc-PICK1, in presence of 3 mM GTPγS; precipitated with anti-myc, 3 h at 4 °C.
The target in test [2] is GST-PICK1 (UniProt Q9EP80). The test is described as follows: pull-down; 80 μg GST-PICK1 on glutathione-Sepharose 4B beads, 2 mg lysate (RIPA buffer) of COS7 cells expressing flag-RAB39B constructs, 3 h at 4 °C; only the target purified.
For test [3], the target named is GST-PICK1 (UniProt Q9EP80). The test is described as follows: pull-down; 80 μg GST-PICK1 on glutathione-Sepharose 4B beads, 16 mg mouse brain lysate in HKT buffer, 3 h at 4 °C; only the target purified.

B1: PICK1, endogenous in mouse brain lysate, Q62083 1-416 (protein)
chain: MFADLDYDIEEDKLGIPTVPGKVTLQKDAQNLIGISIGGGAQYCPCLYIVQVFDNTPAALDGTVAAGDEITGVNGKSIKGKTKVEVAKMIQEVKGEVTIHYNKLQADPKQGMSLDIVLKKVKHRLVENMSSGTADALGLSRAILCNDGLVKRLEELERTAELYKGMTEHTKNLLRAFYELSQTHRAFGDVFSVIGVREPQPAASEAFVKFADAHRSIEKFGIRLLKTIKPMLTDLNTYLNKAIPDTRLTIKKYLDVKFEYLSYCLKVKEMDDEEYSCIGPRRALYRVSTGNYEYRLILRCRQEARARFSQMRKDVLEKMELLDQKHVQDIVFQLQRFVSTMSKYYNDCYAVLQDADVFPIEVDLAHTTLAYGPNQGSFTDGEEEDEEEEDGAAREVSKDACGATGPTDKGGSWCDS
B1: the binding entry in test [1] is on record as “binds”.

B2: flag-RAB39B (in HEK293T cells) (protein, UniProt Q8BHC1 1-213)
chain: MEAIWLYQFRLIVIGDSTVGKSCLIRRFTEGRFAQVSDPTVGVDFFSRLVEIEPGKRIKLQIWDTAGQERFRSITRAYYRNSVGGLLLFDITNRRSFQNVHEWLEETKVHVQPYQIVFVLVGHKCDLDTQRQVTRHEAEKLAAAYGMKYIETSARDAINVEKAFTDLTRDIYELVKRGEITIQEGWEGVKSGFVPNVVHSSEEVIKSERRCLC
Consider B2, for which, in the test with myc-PICK1, the binding entry is “binds”.

B3: flag-D44F45AA RAB39B (protein, UniProt Q8BHC1 1-213)
chain: B2 chain with D44A, F45A
For the molecule B3, the binding result in the test with GST-PICK1 [2] was “no binding”.

B4: RAB39B, endogenous in mouse brain lysate (protein, UniProt Q8BHC1 1-213)
chain: B2 chain
For the molecule B4, the binding entry with GST-PICK1 [3] is recorded as “binds”.

B5: flag-ΔER RAB39B (protein, UniProt Q8BHC1)
chain: MEAIWLYQFRLIVIGDSTVGKSCLIRRFTEGRFAVEIEPGKRIKLQIWDTAGQERFRSITRAYYRNSVGGLLLFDITNRRSFQNVHEWLEETKVHVQPYQIVFVLVGHKCDLDTQRQVTRHEAEKLAAAYGMKYIETSARDAINVEKAFTDLTRDIYELVKRGEITIQEGWEGVKSGFVPNVVHSSEEVIKSERRCLC
In the case of B5, the binding entry in the test with GST-PICK1 [2] is recorded as “no binding”.
